Patent publication US6642398B2, “Mono-and disubstituted 3-propyl gamma-aminobutyric acids” (Warner-Lambert Company, priority 1999, dated 2003)
pIC50: −log10 of the molar value. Counter-ions that a name gives are not always drawn.

Target: α2δ subunit derived from porcine brain tissue (Sus scrofa, UniProt A0A287BIN3)
Assay: radioligand binding assay using [3H]gabapentin

Row | Structure (SMILES) | pIC50
1 | CC(C)[C@H](C)[C@H](CN)CC(=O)O [(3R,4S)-3-Aminomethyl-4,5-dimethyl-hexanoic acid] | 5.77
2 | CCCCC(C(C)C)C(CN)CC(=O)O (centres unmarked) [3-aminomethyl-4-isopropyl-octanoic acid, 3-Aminomethyl-4-isopropyl-octanoic acid] | 5.27
3 | CCC[C@H](C)C[C@H](CN)CC(=O)O [(3S,5S)-3-Aminomethyl-5-methyl-octanoic acid] | 5.92
4 | CCCC(C)C[C@H](CN)CC(=O)O (stereo partly drawn) [(S)-3-Aminomethyl-5-methyl-octanoic acid] | 7.90
5 | CCC(CC)C(CN)CC(=O)O (centres unmarked) | 6.69
6 | CC(CC(CN)CC(=O)O)C(F)(F)F (centres unmarked) [3-Aminomethyl-6,6,6-trifluoro-5-methyl-hexanoic acid] | 5.33
7 | CCCCCC(C)CC(CN)CC(=O)O (centres unmarked) [3-Aminomethyl-5-methyldecanoic acid] | 6.82
8 | CC(CC(CN)CC(=O)O)CC(C)(C)C (centres unmarked) [3-Aminomethyl-5,7,7-trimethyl-octanoic acid] | < 5.00
9 | CC(CC(CN)CC(=O)O)C1CCCC1 (centres unmarked) [3-Aminomethyl-5-cyclopentyl-hexanoic acid] | < 5.00
10 | CC(C)[C@@H](C)[C@H](CN)CC(=O)O [(3R,4R)-3-Aminomethyl-4,5-dimethyl-hexanoic acid] | 7.66
11 | CC(Cc1ccccc1)CC(CN)CC(=O)O (centres unmarked) [3-Aminomethyl-5-methyl-6-phenyl-hexanoic acid] | 5.04
12 | CC(C)[C@@H](C)[C@@H](CN)CC(=O)O [(3S,4R)3-Aminomethyl 4,5-dimethyl-hexanoic acid] | 5.66
13 | CCCCC[C@@H](C)C[C@H](CN)CC(=O)O [(3S,5R)-3-Aminomethyl-5-methyl-decanoic acid] | 7.53
14 | CCCC(C(C)C)C(CN)CC(=O)O (centres unmarked) [3-aminomethyl-4-isopropyl-heptanoic acid, 3-Aminomethyl-4-isopropyl-heptanoic acid] | 6.17
15 | CCCC(C)CC(CN)CC(=O)O (centres unmarked) [3-Aminomethyl-5-methyloctanoic acid, 3-Aminomethyl-5-methyl-octanoic acid] | 7.72
16 | CCC(C)CC(CN)CC(=O)O (centres unmarked) | 7.04
17 | CC[C@@H](C)[C@H](CN)CC(=O)O | 5.74
18 | CCCC[C@@H](C)C[C@H](CN)CC(=O)O [(3S,5R)-3-Aminomethyl-5-methyl-nonanoic acid hydrochloride] | 7.59
19 | CC(C)CC(C)CC(CN)CC(=O)O (centres unmarked) [3-Aminomethyl-5,7-dimethyl-octanoic acid] | 6.44
20 | CCC[C@@H](C)C[C@H](CN)CC(=O)O [(3S,5R)-3-Aminomethyl-5-methyl-octanoic acid hydrochloride] | 7.92
21 | CCCCCCC(C)CC(CN)CC(=O)O (centres unmarked) [3-Aminomethyl-5-methylundecanoic acid] | 6.79
22 | CC(C)[C@@H](C)C(CN)CC(=O)O (some centres unmarked) | 7.40
23 | CC(CC(CN)CC(=O)O)c1ccccc1 (centres unmarked) [3-Aminomethyl-5-phenyl-hexanoic acid] | 5.00
24 | C=CCC(C)CC(CN)CC(=O)O (centres unmarked) [3-Aminomethyl-5-methyl-oct-7-enoic acid] | < 5.00
25 | CCC(C)CC(CN)CC(=O)O (racemic) [3-Aminomethyl-5-methylheptanoic acid] | 7.04
26 | CC(CC(CN)CC(=O)O)C1CCCCC1 (centres unmarked) [3-Aminomethyl-5-cyclohexyl-hexanoic acid] | 5.14
27 | CCC(C(C)C)C(CN)CC(=O)O (centres unmarked) [3-aminomethyl-4-isopropyl-hexanoic acid, 3-Aminomethyl-4-isopropyl-hexanoic acid] | 6.31
28 | CCCCC(C)CC(CN)CC(=O)O (centres unmarked) [3-Aminomethyl-5-methylnonanoic acid] | 6.75
29 | CC(CF)C[C@H](CN)CC(=O)O (stereo partly drawn) [(S)-3-Aminomethyl-6-fluoro-5-methyl-hexanoic acid] | 6.22
